Experimental data as given in US8071103B2, “Pharmaceutical composition comprising a human GLP-1 mimetibody” (Centocor, Inc., priority 2006, dated 2011).

Columns and labels:
Type in all cases: in vivo
[1] = Pharmacokinetics in monkeys; conditions: cynomolgus monkeys, single iv, 1 mg/kg, mean
Experimental: Pharmacokinetics in monkeys: Cynomolgus monkeys were dosed intravenously with GLP-1 MMB of SEQ ID NO 4 (1.0 mg/kg, lot #8833013) at Diabetes Research Institute, University of Miami (2). The monkeys were chemically restrained with ketamine HCl (100 mg/mL, 10 mg/kg) prior to dosing and blood collections. GLP-1 MMB of SEQ ID NO 4 was administered at a dose volume of 2.2 mL/kg at a rate of 1 mL/minute. Approximately 2 mL of blood was collected at various time points following dosing in sodium citrate (3.8%) containing protease inhibitors (Roche Complete EDTA free, Roche Applied Science, Indianapolis, Ind.) and DPP4 inhibitors (Linco, St. Charles, Mo.). Plasma was isolated and stored at −80° until samples could be analyzed. GLP-1 MMB of SEQ ID NO 4 concentrations in the plasma was measured as described above.
Data analysis: Non-compartmental analysis (NCA) was employed to calculate the pharmacokinetic parameters of GLP-1 MMB of SEQ ID NO 4 (WinNonlin, Version 5.1, Pharsight Corporation, Mountain View, Calif.). The maximum serum concentration, Cmax and the time to reach Cmax (Tmax), were obtained from inspection of the serum concentration vs. time profiles. The area under the concentration curve (AUC) from time 0 to the last time point with quantifiable levels of GLP-1 MMB of SEQ ID NO 4 was calculated (AUC (0-7d) for rat, AUC (0-21d) for monkey), as well as the AUC from time 0 to infinity. The AUC values were obtained by linear trapezoidal integration. The terminal rate constant (λz) was determined by least-squares regression analysis of the log-linear portion of the terminal phase. The terminal half-life, t½, was calculated from the ratio of 0.693 and λz.

[2] = test system: diet-induced obese (DIO) mice; assay: ipGTT in diet-induced obese (DIO) mice, acute pharmacodynamic study
Experimental: Acute Pharmodynamic Study with GLP-1 MMB.
Materials/Methods: D-glucose was purchased from Sigma. The studies described below used diet-induced obese (DIO) C57B1/6J mice that were started on a diet containing 60.9% fat (Purina TestDiets 58126) at 4 weeks of age. All animals achieved three consecutive weeks of diabetic fasting blood glucose values (>120 mg/dL) prior to their inclusion in the study. ipGTT: Thirty-five mice were fasted overnight (16 hr) and were randomized into 7 groups (n=5) based upon their fasting glucose concentrations. Ten minutes prior to the glucose tolerance test, mice were dosed i.v. with PBS or GLP1 MMB of SEQ ID NO 4 (0.003, 0.01, 0.03, 0.1, 0.3, and 1.0 mg/kg). Five minutes prior to the glucose tolerance test, a fasting glucose measurement was made from tail vein blood. At T=0 min, mice were dosed i.p. with D-glucose (1.0 mg/g). Blood glucose levels were measured at 15, 30, 60, 90, 120, 150 and 180 min using tail vein blood.

[3] = target: T1, GLP-1 receptor (Mus musculus, UniProt O35659); assay: Food intake in GLP-1R−/− and wild type mice; conditions: wild type mice, single iv, GLP-1 MMB 1 mg/kg, exendin-4 0.07 mg/kg
T1 construct: Male GLP-1R−/− and age matched wild type mice; from tissue; host or cells: whole animal (wild type mice; GLP-1R-/- mice as receptor-free control)
T1 sequence (O35659 22-463): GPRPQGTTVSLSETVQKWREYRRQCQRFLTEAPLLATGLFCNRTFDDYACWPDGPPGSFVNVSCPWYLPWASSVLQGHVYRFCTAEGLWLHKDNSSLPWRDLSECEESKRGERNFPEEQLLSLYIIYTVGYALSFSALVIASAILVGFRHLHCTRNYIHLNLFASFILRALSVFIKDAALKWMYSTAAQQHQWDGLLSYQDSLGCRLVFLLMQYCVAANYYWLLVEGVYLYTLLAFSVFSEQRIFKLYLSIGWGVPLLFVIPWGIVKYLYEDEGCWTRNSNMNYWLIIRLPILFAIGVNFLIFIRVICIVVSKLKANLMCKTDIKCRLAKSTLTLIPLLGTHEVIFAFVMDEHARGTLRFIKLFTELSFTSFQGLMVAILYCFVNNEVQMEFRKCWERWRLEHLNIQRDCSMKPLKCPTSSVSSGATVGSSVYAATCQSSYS
From the text: (§1) Materials/Methods: Animals: Male GLP-1R−/− and age matched wild type mice were randomized into three treatment groups (n=5) based on body weight and fasting blood glucose.

[4] = test system: GLP-1 receptor; assay: Food intake in GLP-1R−/− and wild type mice; conditions: GLP-1R−/− mice, single iv, GLP-1 MMB 1 mg/kg, exendin-4 0.07 mg/kg
From the text: as §1

[5] = target: T1, GLP-1 receptor; assay: Glucose tolerance test (ipGTT) in GLP-1R−/− and wild type mice; conditions: wild type mice, single iv, GLP-1 MMB 1 mg/kg, exendin-4 0.07 mg/kg
Experimental: as §1
Glucose tolerance test (ipGTT): Mice were fasted overnight and dosed intravenously as discussed above. Fasting glucose was measured via tail snips using a hand-held glucometer (LifeScan). At t=0 min, mice were dosed i.p. with D-glucose (1.0 mg/g, Sigma) and blood glucose was measured after 15, 30, 60, 90 and 120 min using tail vein blood

[6] = target: T1, GLP-1 receptor; assay: Gastric emptying in GLP-1R−/− and wild type mice; conditions: wild type mice, single iv, GLP-1 MMB 1 mg/kg, exendin-4 0.07 mg/kg
Experimental: as §1
(§2) Gastric Emptying: Mice were fasted overnight. The next morning mice were re-fed for 1 h, food intake was recorded and the mice were deprived of food for the rest of the study. Mice were dosed intravenously as discussed above. Two hours post-dosing mice were euthenized.
(§3) The stomach was exposed by laparotomy, ligated at both the pylorus and cardia and removed.
(§4) The stomach content wet weight was measured. Equation 1 was used to calculate the percent of food remaining in the stomach. (Stomach Content Wet Weight (g)/Food Intake (g))*100 Equation (1)

[7] = test system: GLP-1 receptor; assay: Gastric emptying in GLP-1R−/− and wild type mice; conditions: GLP-1R−/− mice, single iv, GLP-1 MMB 1 mg/kg, exendin-4 0.07 mg/kg
Experimental: as §1, §2, §3, §4

B1: GLP-1 MMB of SEQ ID NO 4: GLP-1 mimetibody having the sequence of SEQ ID NO 4 (protein)
chain: HSEGTFTSDVSSYLEGQAAKEFIEWLVKGRGGGSGGGSGTLVTNSS[human IgG4 Fc with S228P F234A L235A (EU numbers) omitted]
modifications: fusion protein of GLP-1 variant-linker 3-J region-Hinge H3-Fc
AUC(0-21) [1]: 41.92 µg·days/mL
AUCinf [1]: 42.05 µg·days/mL
Cl [1]: 1.034 mL/h/kg
Cmax [1]: 40.09 µg/mL
Vss [1]: 0.05018 L/kg
Vz [1]: 0.1054 L/kg
t½ [1]: 70.3 h
area under the curve of ipGTT relative to the PBS-treated group ([2]; i.v. 0.01, 0.03, 0.1, 0.3, 1 mg/kg): significantly reduced
ED50 (ipGTT AUC vs dose) ([2]; i.v., fit to a hyperbola): 0.014 mg/kg
24 hour cumulative food intake compared to CNTO1996 [3]: reduced food intake; also recorded: statistically significant reduction
food intake [4]: no effect
AUC of ipGTT [5]: improved glucose tolerance; also recorded: statistically significant reduction
stomach content (percent of food remaining) 2 h after dosing compared to CNTO1996 [6]: inhibited gastric emptying; also recorded: statistically significant increase
gastric emptying [7]: no effect

Entries after “also recorded” stand apart in the source; their conditions may differ.
